“And” between values parts separate entries of the source, which are not always exact repeats. Equal values may be shown once. In all, about 230,000 compounds went through this assay and about 3,600 (1.6%) were called active. Inconclusive means that the source gave no clear call. Such entries were picked first, then a sample of the others. Calls come from the whole dose curve; as a rule, active = well fitted inhibition curve with a large enough effect (not every such curve was filed as active); inconclusive = small, poorly fitted or top-dose-only effect, or another doubt; inactive = no such curve, though single readings can be large or run the other way. Where the call is inconclusive, the potency comes from a doubtful curve fit.
The molecules below were run against Lysine-specific demethylase 4E (Homo sapiens) (UniProt B2RXH2) (assay: qHTS Assay for Inhibitors of Human Jumonji Domain Containing 2E (JMJD2E)). Details: JMJD2E catalytic domain, FDH-coupled NADH fluorescence (FDH is formaldehyde dehydrogenase); series mostly up to 57.1 µM.
Sequence of UniProt B2RXH2 (B2RXH2 whole entry, looked up, the tested form may be a part): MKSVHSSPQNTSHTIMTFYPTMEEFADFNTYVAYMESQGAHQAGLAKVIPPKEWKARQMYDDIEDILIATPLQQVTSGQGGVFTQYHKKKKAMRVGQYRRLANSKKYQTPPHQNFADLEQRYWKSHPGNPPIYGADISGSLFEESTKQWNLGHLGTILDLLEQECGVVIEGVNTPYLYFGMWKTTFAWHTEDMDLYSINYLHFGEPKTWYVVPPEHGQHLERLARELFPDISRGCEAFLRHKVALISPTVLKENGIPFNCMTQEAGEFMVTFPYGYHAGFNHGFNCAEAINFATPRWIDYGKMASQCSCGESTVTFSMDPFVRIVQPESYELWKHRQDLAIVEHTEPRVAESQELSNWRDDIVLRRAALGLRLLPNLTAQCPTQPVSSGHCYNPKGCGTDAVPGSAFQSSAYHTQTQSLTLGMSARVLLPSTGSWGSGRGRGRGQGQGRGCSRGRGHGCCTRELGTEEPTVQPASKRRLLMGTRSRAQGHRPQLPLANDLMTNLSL
`Cc1ccc(-c2nc(NCc3ccc(F)cc3)n(S(C)(=O)=O)n2)cc1` was tested, and the Potency was “inactive”.
In the case of `O=C1C(=O)N(CCN2CCOCC2)C(c2ccccn2)/C1=C(/O)c1ccccc1` (stereo unspecified), the Potency is reported as inconclusive: 20 µM [inhibitor, partial curve].
`COC(=O)CCCC1=CC2=CC(=O)C(C)(OC(=O)c3cccs3)C(=O)C2=CN1c1cccc(C#N)c1` (stereo unspecified) was tested, and the Potency was inconclusive: 31.6 µM [inhibitor, single point].
For `O=C(Cn1c(NCCCO)nc2ccccc21)c1cccc(Br)c1`, the Potency was “inactive”.
With `CCn1c(C)cc(/C=C2/SC(=S)NC2=O)c1C` the Potency was “inactive”.
For `COc1ccc(-c2nc(N)ncc2Oc2ccccc2Br)c(O)c1`, the Potency was inconclusive: 39.8 µM [inhibitor, single point].
In the case of `Cc1ccc(-c2ccc(CCC(=O)O)n2CC(=O)O)cc1`, the Potency is reported as “inactive”.
With `CCn1cc(C(=O)O)c(=O)c2cc(F)c(N3CCN(C(=S)NC(=O)c4ccc(F)cc4)CC3)cc21` the Potency was inconclusive: 35.5 µM [inhibitor, partial curve].
With `CC1(C)CC(=O)c2cnc(NC(=O)CSc3nc4ccccc4o3)nc2C1` the Potency was “inactive”.
`COc1ccc(-c2cc3ccccc3n2CC(O)CN2CCCCC2)cc1` (stereo unspecified) was tested, and the Potency was inconclusive: 31.6 µM [inhibitor, partial curve].
`Cc1ccc(-c2csc3n[nH]c(=S)n23)cc1` was tested, and the Potency was inconclusive: 25.1 µM [inhibitor, single point].
`CN(C)c1ccc(/C=N/n2c(COc3ccccc3)n[nH]c2=S)cc1` was tested, and the Potency was inconclusive: 25.1 µM [inhibitor, single point].
In the case of `CCN1CCN(c2nc3ccccn3c(=O)c2/C=C(\C#N)S(=O)(=O)c2ccccc2)CC1`, the Potency is reported as inconclusive: 39.8 µM [inhibitor, single point].
`CN(C)c1ccc(C(=O)NC2CCCc3ccccc32)cc1` (stereo unspecified) was tested, and the Potency was inconclusive: 35.5 µM [inhibitor, single point].
For `Cc1ccc(NC(=O)CSc2nc(NS(=O)(=O)c3ccccc3)cc(=O)[nH]2)cc1`, the Potency was inconclusive: 39.8 µM [inhibitor, single point].
In the case of `Oc1ccc(C(=S)N2CCN(c3cccc(Cl)c3)CC2)cc1`, the Potency is reported as “inactive”.
`CCOC(=O)c1c(C)[nH]c(C(=O)OCC(=O)c2c(N)n(C)c(=O)n(C)c2=O)c1C` was tested, and the Potency was “inactive”.
For `CCOC(=O)C1CCCN(C(=O)c2cn(CC(C)C)c(=O)c3cc(OC)c(OC)cc23)C1` (stereo unspecified), the Potency was inconclusive: 39.8 µM [inhibitor, single point].
For `CC(C)NS(=O)(=O)c1ccc(CCC(=O)N2CCC(C(N)=O)CC2)cc1`, the Potency was inconclusive: 35.5 µM [inhibitor, single point].
`CSc1ccc(S(=O)(=O)Nc2ccc3c4c(cccc24)CC3)cc1` was tested, and the Potency was “inactive”.
With `CCn1c(=O)c2cc(C(=O)N3CCCC3)sc2c2ccccc21` the Potency was inconclusive: 3.55 µM [inhibitor, full curve].
For `COc1ccc(C(=O)Cn2c(Br)nc3c2c(=O)n(C)c(=O)n3C)cc1OC`, the Potency was “inactive”.
For `Cc1ccc2c(c1)c1c(n2CC(O)CN2C(=O)CNC2=O)C(=O)CCC1` (stereo unspecified), the Potency was inconclusive: 31.6 µM [inhibitor, partial curve].
With `CC1(C)CC(=O)C(/C=N/c2ccccn2)=C(O)C1` the Potency was “inactive”.
In the case of `CCOC(=O)/C(C#N)=C\c1cccnc1`, the Potency is reported as “inactive”.
For `Cc1ccccc1-c1nnc(SCc2ccccc2F)o1`, the Potency was “inactive”.
With `Cc1cccc(OCC(=O)Nc2cccc3nsnc23)c1` the Potency was inconclusive: 31.6 µM [inhibitor, single point].
For `COc1cc(/C=C/C(=O)Oc2coc(CSc3ncccn3)cc2=O)cc(OC)c1OC`, the Potency was inconclusive: 6.31 µM [inhibitor, single point].
`O=C(O)c1cc2cc(F)ccc2[nH]1` was tested, and the Potency was inconclusive: 20 µM [inhibitor, partial curve] and inconclusive: 25.1 µM [inhibitor, partial curve].
In the case of `Oc1c(N=NC(=S)Nc2ccccc2F)c2ccccc2n1Cc1ccccc1`, the Potency is reported as “inactive”.
For `CCOc1ccc(NC(=O)c2oc3ccccc3c2NC(=O)CC)cc1`, the Potency was inconclusive: 35.5 µM [inhibitor, single point].
`CN1CCN(c2cc(N3CCc4ccccc4C3)c(F)cc2[N+](=O)[O-])CC1` was tested, and the Potency was “inactive”.
For `O=[N+]([O-])c1ccccc1/C=C/C=N/n1c(-c2ccccc2F)n[nH]c1=S`, the Potency was “inactive”.
`O=C(NC(NC(=S)Nc1ccccc1C(=O)O)C(Cl)(Cl)Cl)c1ccco1` (stereo unspecified) was tested, and the Potency was inconclusive: 25.1 µM [inhibitor, partial curve].
For `O=C(NCc1ccco1)Nc1ccc2nsnc2c1`, the Potency was inconclusive: 31.6 µM [inhibitor, partial curve].
`Cc1ccc(-n2ncc3c2ncn2nc(-c4ccco4)nc32)c(C)c1` was tested, and the Potency was inconclusive: 14.1 µM [inhibitor, partial curve].
In the case of `O=C(NCCCN1CCN(CCCNC(=O)c2ccc3c(c2)OCO3)CC1)c1ccc2c(c1)OCO2`, the Potency is reported as “inactive”.
With `COc1ccc(NC(=S)Nc2ccc(OC(F)F)cc2)cn1` the Potency was inconclusive: 12.6 µM [inhibitor, partial curve].
In the case of `CCOC(=O)N1CCN(S(=O)(=O)c2ccc3c(c2)oc(=O)n3C)CC1`, the Potency is reported as “inactive”.
`CCOC(=O)c1cc2c(=O)n3cccc(C)c3nc2n(Cc2ccco2)c1=NC(=O)c1ccccc1` was tested, and the Potency was inconclusive: 25.1 µM [inhibitor, partial curve].
For `CCCNC(=O)COC(=O)c1n[nH]c2ccccc12`, the Potency was inconclusive: 28.2 µM [inhibitor, partial curve].
With `O=C(CCN1C(=O)C2CC=C(Cl)CC2C1=O)NCc1ccccc1` (stereo unspecified) the Potency was “inactive”.
With `CCSc1nnc(NC(=O)c2ccc3c(c2)OCO3)s1` the Potency was inconclusive: 28.2 µM [inhibitor, single point].
For `COC(=O)CN1C(=O)N/C(=C/c2cc(Cl)c(OC)c(OC)c2)C1=O`, the Potency was inconclusive: 39.8 µM [inhibitor, single point].
With `CC(Nc1cc(N2CCN(S(=O)(=O)N(C)C)CC2)ccc1[N+](=O)[O-])c1ccccc1` (stereo unspecified) the Potency was “inactive”.
With `COC(=O)c1cc2c(N)c(C(=O)c3ccccc3)sc2nc1C(OC)OC` the Potency was “inactive”.
For `O=S(=O)(Nc1ccc(N2CCCCC2)cc1)c1ccc(F)cc1F`, the Potency was “inactive”.
With `COC(=O)c1ccccc1NC1=C/C(=N\S(=O)(=O)c2cccs2)c2ccccc2C1=O` the Potency was inconclusive: 39.8 µM [inhibitor, single point].
In the case of `NCCCNC(=O)c1cc2ccccc2[nH]1`, the Potency is reported as inconclusive: 39.8 µM [inhibitor, single point].
In the case of `CCOC(=O)N1CCC(NCCNC(=O)c2ccc(Cl)cc2)CC1`, the Potency is reported as inconclusive: 39.8 µM [inhibitor, single point].
With `COc1ccccc1/C=C1\SC(=O)N(CCC(=O)NNC(=O)c2ccccc2Cl)C1=O` the Potency was inconclusive: 3.16 µM [inhibitor, full curve].
In the case of `CN(C(=O)CCCOc1ccc2[nH]c(=O)ccc2c1)C1CCCCC1`, the Potency is reported as inconclusive: 25.1 µM [inhibitor, partial curve] and inconclusive: 28.2 µM [inhibitor, partial curve].
With `CC(NC(=O)C1CCCO1)c1ccccc1` (stereo unspecified) the Potency was “inactive”.
With `COc1ccccc1CC(=O)N1CCN(c2ccc([N+](=O)[O-])cc2)CC1` the Potency was “inactive”.
`CC#CCN1c2ccccc2[C@]23C[C@@H](C(=O)OC)N(C(=O)COCc4ccccc4)C2=NC(C(=O)OC)=C(C(=O)OC)[C@H]13` was tested, and the activity change, negative = inhibition was inactive: 8.84% [at 11.4 µM].
With `O=C(Cc1ccccc1)Nc1ccc2oc(-c3cccnc3)nc2c1` the Potency was inconclusive: 7.94 µM [inhibitor, partial curve].
With `Cc1ccc2nc(NCc3ccco3)c(C=NCc3ccco3)c(=O)n2c1` the Potency was inconclusive: 11.2 µM [inhibitor, partial curve, poor fit].
In the case of `S=C(c1ccc(-c2ccc(Cl)c(Cl)c2)o1)N1CCOCC1`, the Potency is reported as “inactive”.
For `Cc1cc(C)n2cc(CSC3=NCCS3)nc2n1`, the Potency was inconclusive: 28.2 µM [inhibitor, partial curve].
In the case of `CCCc1cc(-c2n[nH]c(=S)n2Cc2ccccc2)cs1`, the Potency is reported as inconclusive: 14.1 µM [inhibitor, partial curve, poor fit].
For `CCOC(=O)N1CCN(c2ncnc3c2[nH]c2ccc(F)cc23)CC1`, the Potency was inconclusive: 28.2 µM [inhibitor, partial curve].
For `COc1cccc(C(=O)Nc2ccc(C)cc2)c1`, the Potency was inconclusive: 39.8 µM [inhibitor, single point].
In the case of `Cc1cc(-c2ccc(Cl)cc2)oc(=O)c1NC(=O)c1ccccc1`, the Potency is reported as inconclusive: 35.5 µM [inhibitor, single point].
For `COc1ccc(-c2n[nH]c(=S)n2N)c(OC)c1`, the Potency was inconclusive: 39.8 µM [inhibitor, single point].
With `COc1ccc(CCNc2cc(C)nc3c(-c4ccccc4)c(C)nn23)cc1OC` the Potency was inconclusive: 28.2 µM [inhibitor, partial curve].
`O=C(N/N=C/c1cc(Cl)ccc1O)C(=O)Nc1ccccc1OC(F)(F)C(F)F` was tested, and the Potency was inconclusive: 25.1 µM [inhibitor, single point].
With `O=C(COC(=O)c1cc[n+]([O-])cc1)Nc1ccc2c(c1)OCCO2` the Potency was “inactive”.
In the case of `CCOC(=O)Nc1cc(C(=O)OC)cc(C(=O)OC)c1`, the Potency is reported as inconclusive: 28.2 µM [inhibitor, single point].
`CN(C)CC(=O)c1c(N)n(Cc2ccccc2)c(=O)n(C)c1=O` was tested, and the Potency was “inactive”.
For `COc1cc2c(cc1OC)C1=NC(=O)CN1C(SCc1ccc(C)cc1)=N2`, the Potency was inconclusive: 8.91 µM [inhibitor, full curve].
`C=C(C)CSc1nnc([C@@H]2CCCN2)o1` was tested, and the Potency was “inactive”.

— PubChem BioAssay AID2147 (National Center for Advancing Translational Sciences (NCATS), 2009)
Note: nearly all actives have a fitted effect of over 50% in size.
Potency is the fitted concentration of half-maximal effect; tags give direction and shape of the fitted curve.
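Throughout, for activity change, negative = inhibition: 0% = wells with enzyme and -100% = buffer wells without enzyme.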
